Key:
[1] = molecular target: T1, HMGB1(red), fully reduced form of full-length HMGB1 (HMGB1C23hC45hC106h) (rat, UniProt P63159 1-215, all cysteines reduced (C23h, C45h, C106h)); experiment: cell-based or functional assay
T1 sequence: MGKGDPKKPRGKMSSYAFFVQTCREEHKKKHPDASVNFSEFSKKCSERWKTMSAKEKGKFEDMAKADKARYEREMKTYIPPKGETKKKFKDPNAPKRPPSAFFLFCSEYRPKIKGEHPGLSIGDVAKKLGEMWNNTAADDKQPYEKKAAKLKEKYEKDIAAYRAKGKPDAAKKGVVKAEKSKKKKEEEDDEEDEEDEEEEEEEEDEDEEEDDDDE

[2] = molecular target: T1, HMGB1(red), fully reduced form of …; experiment: QCM (Attana A200); polypeptide captured on HSA, HMGB1(red) injected, 2 mM DTT; 1:1 or 1:2 model, average KD
Method: Binding analysis: The Attana A200® biosensor was used to characterize interactions between the dimeric polypeptides (SEQ ID NO:38-48) and HMGB1(red) under reducing conditions and/or HMGB1(disulfide) under non-reducing conditions. The monomeric ZA3812 (SEQ ID NO:35) was included for comparison. The experiment was performed as a capture assay, in which HSA was immobilized on Attana's sensor chip Low-NonSpecific-Binding (LNB). Immobilization was performed using amine coupling. The instrument has two sensor surfaces and HSA was immobilized on both surfaces. Around 110 Hz of HSA was stably immobilized on the surfaces.
In the kinetic experiment, HBS-EP+/−2 mM DTT was used as running buffer and the flow rate was 25 μl/min at 22° C. In each cycle, one polypeptide was tested against one concentration of HMGB1. […] The analyte HMGB1(reduced) was diluted in HBS-EP+2 mM DTT within a concentration range of 1.33 to 21.4 μg/ml, and the analyte HMGB1(disulfide) was diluted in HBS-EP buffer within a concentration range of 0.62 to 10 μg/ml. Both analytes were subsequently injected for 84 s over both channel A and B, where channel B was used as a blank surface for curve subtraction. Buffer injections were also made for surface subtractions. After dissociation, the surfaces were regenerated with a 30 s injection of 100 mM HCl followed by a 30 s injection of 20 mM NaOH. Data was collected by Attester Software and subsequently processed in the Evaluation Software. To calculate the kinetic parameters (kₐ and kd) and affinity constant (KD), the experimental data were fitted using a 1:1 or a 1:2 binding model.
Binding analysis of dimeric polypeptides targeting HMGB1: The interactions of a set of dimeric polypeptides, as well as one monomeric polypeptide, with HMGB1(reduced) and/or HMGB1(disulfide) were analyzed using an Attana A200® biosensor instrument by injecting various concentrations of HMGB1 over a surface containing captured polypeptides in fusion with ABD bound by immobilized HSA.

[3] = molecular target: T2, HMGB1(disulfide), disulfide linked form of full-length HMGB1 (HMGB1C23-C45C106h) (rat, UniProt P63159 1-215, disulfide C23-C45; C106 reduced); experiment: SPR (Biacore 2000); Z-ABD captured on HSA, analyte injected; heterogeneous ligand parallel reactions model, ka1
T2 construct: unlabelled in Biacore and Attana; also called b-HMGB1(disulfide)
T2 sequence: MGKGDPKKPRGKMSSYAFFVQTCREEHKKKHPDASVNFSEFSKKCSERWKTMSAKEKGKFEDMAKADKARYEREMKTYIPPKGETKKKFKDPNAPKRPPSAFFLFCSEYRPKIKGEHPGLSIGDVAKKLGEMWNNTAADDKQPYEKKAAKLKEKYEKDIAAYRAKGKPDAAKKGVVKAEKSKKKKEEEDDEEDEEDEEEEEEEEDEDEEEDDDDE
Method: (§1) Biacore kinetic and specificity analysis: The interactions of the A-box binding Z-ABD polypeptides ZA3812 (SEQ ID NO:35) and ZA3914 (SEQ ID NO:36) with four different HMGB1 variants were analyzed in a Biacore instrument by injecting various concentrations of HMGB1 variants over a surface containing ZA3812 and ZA3914, respectively, captured on immobilized HSA. […] In addition, the interaction of the B-box binding Z-ABD polypeptide ZA3975 (SEQ ID NO:37) was analyzed for binding to HMGB1(red) in the same manner.

[4] = molecular target: T2, HMGB1(disulfide), disulfide linked form …; experiment: SPR (Biacore 2000); Z-ABD captured on HSA, analyte injected; heterogeneous ligand parallel reactions model, ka2
Method: Biacore kinetic and specificity analysis: Kinetic constants (kₐ and kd) and affinities (KD) for HMGB1(red), HMGB1(disulfide), boxA(disulfide) and GST-boxA(red) were determined for the A-box binding Z-ABD polypeptides ZA3812 (SEQ ID NO:35) and ZA3914 (SEQ ID NO:36) (see Example 2), as well as for the HMGB1(red) interaction with the B-box binding polypeptide ZA3975, using a Biacore 2000 instrument (GE Healthcare).
The experiment was performed as a capture assay, in which human serum albumin (HSA, Novozymes, cat. no. 230-005) was immobilized on the carboxylated dextran layer of one CM5 chip surface (GE Healthcare, cat. no. BR100012) to immobilization levels of approximately 3000 RU. The immobilization was performed using amine coupling chemistry according to the manufacturer's protocol and using HBS-EP (GE Healthcare, cat. no. BR100188) as running buffer. In a first set of experiments, Z-ABD polypeptides were analyzed under non-reducing conditions. One flow cell surface was activated and deactivated for use as blank during ligand and analyte injections. In the kinetic experiment, HBS-EP was used as running buffer and the flow rate was 30 μl/min. The ligand, i.e. the Z-ABD polypeptide, was diluted in HBS-EP buffer to a concentration of 30 nM and injected during 2 min. […]

[5] = molecular target: T2, HMGB1(disulfide), disulfide linked form …; experiment: SPR (Biacore 2000); Z-ABD captured on HSA, analyte injected; heterogeneous ligand parallel reactions model, kd2
Method: as §1

B1: ZA3812 ([ZH 27]-ASGS-PP013) (designed binder)
chain: AEAKYAKEDWDAFWEIIWLPNLTDAQQRAFIYKLEDDPSQSSELLSEAKKLNDSQAPKASGSLAEAKEAANAELDSYGVSDFYKRLIDKAKTVEGVEALKDAILAALP
IC50 of inhibition of HMGB1 induced cell migration [1]: ≤ 0.1 nM | Kd [2]: 51 nM | kon [3]: 160000 M⁻¹ s⁻¹ | kon [4]: 13000 M⁻¹ s⁻¹ | koff [5]: 3.5e-05 s⁻¹

Reference: patent US20220389066A1 (Affibody, published 2022)
